Source: the RNAGym collection of RNA variant scans (doi:10.1073/pnas.2313332121)
This sample is rich in variants without activity.

B1: TPR 5TU (parent)
chain: GGAUCUUCUCGAUCUAACAAAAAAGACAAAUCUGCCACAAAGCUUGAGAGCAUCUUCGGAUGCAGAGGCGGCAGCCUUCGGUGGCGCGAUAGCGCCAACGUUCUCAACUAUGACACGCAAAACGCGUGCUCCGUUGAAUGGAGUUUAUCAUG

Variants of: B1
Test: polymerase ribozyme fitness, log enrichment relative to wild type (log ratio); higher = more active; in vitro selection for triplet polymerase activity
Procedure, shortened: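 Each subunit of a heterodimeric triplet polymerase ribozyme was mutagenized into a library by PCR, transcribed, and subjected to one round of in vitro selection, run in triplicate. Libraries were annealed with a biotinylated primer, the partner subunit and triplets, incubated frozen at −7 °C, and extended constructs were gel-excised, captured on streptavidin beads and recovered by RT-PCR. Input and output libraries were sequenced on Illumina, keeping genotypes with ≥10 input reads and ≥1 read per output. Fitness is log base 2 of genotype enrichment divided by wild-type enrichment, from inverse-variance-weighted replicate averages.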

Row | Variant | polymerase ribozyme fitness (log ratio)
1 | U4C U9A U15A A22U U33G C36A G83A U127G | ≤ -4.2
2 | U4C U9G C108A U144G | ≤ -4.2
3 | U4C U15C A22C A29U C43G U44A U45G C57U G59U C93U | ≤ -4.2
4 | U4C U56G C63U C93G | -3.11
5 | U4C U77A C105A A122U | ≤ -4.2
6 | U4C U77G G83C A89U | ≤ -4.2
7 | U4G A12G A22U U53A C72G G100A U111G C125U | ≤ -4.2
8 | U4G A12G C18A A21G A91U C95G G100U A137G | ≤ -4.2
9 | U4G A12U A16C A23C C76G U82C C108A G143C U151G | ≤ -4.2
10 | U4G A12U C76G A89U C96U | ≤ -4.2
11 | U4G A12U G50U A91U | ≤ -4.2
12 | U4G A12U G84A G112A | ≤ -4.2
13 | U4G A12U U15G A21C C32U G86C U90G G117U | ≤ -4.2
14 | U4G A16C U44A U55G G65C C75U C118U C132A G143C | ≤ -4.2
15 | U4G A17C A47C C69G G86U G88U C105U G140U | ≤ -4.2
16 | U4G A19U U33A A40C C95U U135G | ≤ -4.2
17 | U4G A20C G88A G141C | ≤ -4.2
18 | U4G A20G A37U C57A G65U G84A G100U G141U | ≤ -4.2
19 | U4G A21C G58U G88C G112C A119U U151G | ≤ -4.2
20 | U4G A22C A37U A40C A137C | ≤ -4.2
21 | U4G A22U C43G C51U C54U G67C U134C U135G G141U | ≤ -4.2

Row | Variant | polymerase ribozyme fitness (log ratio)
22 | U4G A23C G42A A66G C93A A98G A137C | ≤ -4.2
23 | U4G A23G A40G G86C G92A C99G G126U G133A U146G | ≤ -4.2
24 | U4G A23U A52G G70C G86U A89G A106G | ≤ -4.2
25 | U4G A24C A28U G59A G68C C93U A138U | ≤ -4.2
26 | U4G A24C C35A C38A A47C U53A G68A U77A A115G | ≤ -4.2
27 | U4G A24G A26C C38U C54G G58A A60C G71U G92C | ≤ -4.2
28 | U4G A26C C35U U55A C85A | ≤ -4.2
29 | U4G A26U A37U C96U C118U | ≤ -4.2
30 | U4G A26U C38A U55A G94A A119G G128U U134A | ≤ -4.2
31 | U4G A28G G84A A147C | ≤ -4.2
32 | U4G A28G U90G C96U G124C C149A | ≤ -4.2
33 | U4G A29C G65U G71A C76U C108A U134G | ≤ -4.2
34 | U4G A29C G94U U146A U148C | ≤ -4.2
35 | U4G A29G C43U G71A G83A C95U C108A | ≤ -4.2
36 | U4G A29G U31C C93A C95A U102C A147U | ≤ -4.2
37 | U4G A29U G59C G62A A64G A66U C95G | ≤ -4.2
38 | U4G A30G A66G C85U G140C | ≤ -4.2
39 | U4G A37C G48A C93A | ≤ -4.2
40 | U4G A37U G81A C99A A106C U127G | ≤ -4.2
41 | U4G A39G A142G | -3.9
42 | U4G A40C C51A A52C A107U U139G | ≤ -4.2

Row | Variant | polymerase ribozyme fitness (log ratio)
43 | U4G A40G C51U C85A G136U | ≤ -4.2
44 | U4G A40G G46C A47C C87G U146G | ≤ -4.2
45 | U4G A41C C69A C79G G92A | ≤ -4.2
46 | U4G A41U G50C C85G | ≤ -4.2
47 | U4G A41U G59A C85U U127G | ≤ -4.2
48 | U4G A49C G58A | ≤ -4.2
49 | U4G A52C G83A | -2.69
50 | U4G A52G G70A A107C G126A | ≤ -4.2
51 | U4G A73G A97G | 0.0284
52 | U4G A97G C103G | -3.15
53 | U4G C5G A16C G25U A28G A52C C54U G94C U104G G128C | ≤ -4.2
54 | U4G C5G G67U G94C A119C U134G A147C | ≤ -4.2
55 | U4G C8A C14G G68C | ≤ -4.2
56 | U4G C8U A40C A49U G92U A106G G140C | ≤ -4.2
57 | U4G C10U U13C A19U C32U U55C C76A G94U C105U C149U | ≤ -4.2
58 | U4G C14U A52G C85G G133U | ≤ -4.2
59 | U4G C18G A20U A21U A40C A73G G74U A107C | ≤ -4.2
60 | U4G C27G G80C C93A U127C G143A U144C | ≤ -4.2
61 | U4G C27U A29C U53A C54U G88A C125A | ≤ -4.2
62 | U4G C27U C43U G68C A89G G92A U151A | ≤ -4.2
63 | U4G C32A C75U G84U U134A | ≤ -4.2

Row | Variant | polymerase ribozyme fitness (log ratio)
64 | U4G C32G C85U U151G | ≤ -4.2
65 | U4G C32G C105U A150C | ≤ -4.2
66 | U4G C35A A66G G74A G92A C116A G128U | ≤ -4.2
67 | U4G C35G C95G U134A G136U | -4.16
68 | U4G C36A C87U | ≤ -4.2
69 | U4G C43G U44A C85U C103A | ≤ -4.2
70 | U4G C54A U61A A91U C95U A97G C103G | ≤ -4.2
71 | U4G C57A A73G C87U | -0.214
72 | U4G C75G A91U G92A U101G C125U | ≤ -4.2
73 | U4G C87A C99U | ≤ -4.2
74 | U4G C87G | ≤ -4.2
75 | U4G G42A C54A G58C C93G G126A G140A | ≤ -4.2
76 | U4G G42A G88U A91G C103G C114U | ≤ -4.2
77 | U4G G42C C76G U90C C93G A113C | ≤ -4.2
78 | U4G G83C G140A U148A | ≤ -4.2
79 | U4G G83U A107C U130A | ≤ -4.2
80 | U4G G84U G88A | ≤ -4.2
81 | U4G U6A A26C A47U G48C C51A G86A | ≤ -4.2
82 | U4G U7A C27A G48C G88U G126U U144G | ≤ -4.2
83 | U4G U7C A12G A22U C43G C99G A106C | ≤ -4.2
84 | U4G U7C C10A C14G U82A C95A A98G U102C C103G C118U A137C | ≤ -4.2
